The list shows a part of the results. Sequences were assembled here from the parent chain. Values near 0.05 are background.
B1: TEV protease; numbered along this chain (parent)
chain: MGESLFKGPRDYNPISSSICHLTNESDGHTTSLYGIGFGPFIITNKHLFRRNNGTLVVQSLHGVFKVKDTTTLQQHLVDGRDMIIIRMPKDFPPFPQKLKFREPQREERICLVTTNFQTKSMSSMVSDTSCTFPSGDGIFWKHWIQTKDGQCGSPLVSTRDGFIVGIHSASNFTNTNNYFTSVPKNFMELLTNQEAQQWVSGWRLNADSVLWGGHKVFMVKPEEPFQPVKEATQL

Variants of: B1
Assay: raw area under fraction-flipped curve 0-4 h after induction (AUC4h, not background-subtracted), DNA-recorder readout of cleavage of the substrate (dimensionless); higher = more cleavage of the substrate by the protease variant
Settings: temperature: 34 °C; time window: 0-4 h after rhamnose induction
Method: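 In vivo DNA recorder in E. coli TOP10(DE3) ΔrhaA at 34 °C. Each TEVp single-site mutant (parent TEVp 0) is paired with a single-site variant of the 7-mer TEVs (canonical ENLYFQ|S). The substrate sits between flexible linkers in a Bxb1-sfGFP-TEVs-SsrA fusion, so cleavage stabilises Bxb1 and speeds flipping of a recombination array, read by NGS. The value is the raw area under the fraction-flipped curve over 0-4 h after rhamnose induction (AUC4h), with ≥20 reads per time point. It is not background-subtracted; inactive controls average about 0.047.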
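Note: Bxb1 expression induced with 0.2% (w/v) L-rhamnose at OD600 near 0.5, cultures sampled hourly, flipped fraction per protease–substrate barcode pair counted by paired-end Illumina sequencing.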

MGESLFKGPRDYNPISSSICHLTNESDGHTTSLYGIGFGPFIITNKHLFRRNNGTLVVQSLHGVFKVKDTTTLQQHLVDGRDMIIIRMPKDFPPFPQKLKFREPQREERICLVTTNFQTKSMSSMVSDTSCTFPSGDGIFWKHWIQTKDTQCGSPLVSTRDGFIVGIHSASNFTNTNNYFTSVPKNFMELLTNQEAQQWVSGWRLNADSVLWGGHKVFMVKPEEPFQPVKEATQL [G150T]
area with substrate ENLYFAS: 0.0609 | area with substrate ENLYFCS: 0.0665 | area with substrate ENLYFDS: 0.0397 | area with substrate ENLYFES: 0.0585 | area with substrate ENLYFFS: 0.0695 | area with substrate ENLYFHS: 0.0592 | area with substrate ENLYFIS: 0.0585 | area with substrate ENLYFKS: 0.0553 | area with substrate ENLYFLS: 0.0601 | area with substrate ENLYFMS: 0.0527 | area with substrate ENLYFNS: 0.0564 | area with substrate ENLYFPS: 0.0662 | area with substrate ENLYFRS: 0.0608 | area with substrate ENLYFSS: 0.0518 | area with substrate ENLYFTS: 0.0569 | area with substrate ENLYFVS: 0.0495 | area with substrate ENLYFWS: 0.0559 | area with substrate ENLYFYS: 0.0551

MGESLFKGPRDYNPISSSICHLTNESDGHTTSLYGIGFGPFIITNKHLFRRNNGTLVVQSLHGVFKVKDTTTLQQHLVDGRDMIIIRMPKDFPPFPQKLKFREPQREERICLVTTNFQTKSMSSMVSDTSCTFPSGDGIFWKHWIQTKDGQCGSPLVSTRDGFIVGIHSASNFTNTNNYFTSVPKNFMELLTNGEAQQWVSGWRLNADSVLWGGHKVFMVKPEEPFQPVKEATQL [Q194G]
area with substrate ENLYFAS: 0.0634 | area with substrate ENLYFCS: 0.0526 | area with substrate ENLYFES: 0.065 | area with substrate ENLYFFS: 0.0827 | area with substrate ENLYFHS: 0.0583 | area with substrate ENLYFIS: 0.0618 | area with substrate ENLYFLS: 0.0473 | area with substrate ENLYFMS: 0.0638 | area with substrate ENLYFNS: 0.0606 | area with substrate ENLYFPS: 0.0588 | area with substrate ENLYFRS: 0.0665 | area with substrate ENLYFSS: 0.0603 | area with substrate ENLYFTS: 0.0638

MGESLFKGPRDYNPISSSICHLTNESDGHTTSLYGIGFGPFIITNKHLFRRNNGTLVVQSLHGVFKVKDTTTLQQHLVDGRDMIIIRMPKDFPPFPQKLKFREPQREERICLVTTNFQTKSMSSMVSDTSCTFPSGDGIFWKHWIQTKDGQCGSPLVSTRDGFFVGIHSASNFTNTNNYFTSVPKNFMELLTNQEAQQWVSGWRLNADSVLWGGHKVFMVKPEEPFQPVKEATQL [I164F]
area with substrate ENLYFAS: 0.0599 | area with substrate ENLYFFS: 0.036 | area with substrate ENLYFIS: 0.0306 | area with substrate ENLYFNS: 0.061 | area with substrate ENLYFPS: 0.131 | area with substrate ENLYFWS: 0.0352

MGESLFKGPRDYNPISSSICHLTNESDGHTTSLYGIGFGPFIITNKHLFRRNNGTLVVQSLHGVFKVKDTTTLQQHLVDGRDMIIIRMPKDFPPFAQKLKFREPQREERICLVTTNFQTKSMSSMVSDTSCTFPSGDGIFWKHWIQTKDGQCGSPLVSTRDGFIVGIHSASNFTNTNNYFTSVPKNFMELLTNQEAQQWVSGWRLNADSVLWGGHKVFMVKPEEPFQPVKEATQL [P96A]
area with substrate ENLYFAS: 0.0786 | area with substrate ENLYFCS: 0.0538 | area with substrate ENLYFDS: 0.0524 | area with substrate ENLYFFS: 0.0691 | area with substrate ENLYFGS: 0.0542 | area with substrate ENLYFIS: 0.0442 | area with substrate ENLYFKS: 0.0592 | area with substrate ENLYFMS: 0.0722 | area with substrate ENLYFPS: 0.053 | area with substrate ENLYFSS: 0.0465 | area with substrate ENLYFTS: 0.0685

MGESLFKGPRDYNPISSSICHLTNESDGHTTSLYGIGFGPFIITNKHLFRRNNGTLVVQSLHGVFKVKDTTTLQQHLVDGRDMIIIRMPKDFPPFTQKLKFREPQREERICLVTTNFQTKSMSSMVSDTSCTFPSGDGIFWKHWIQTKDGQCGSPLVSTRDGFIVGIHSASNFTNTNNYFTSVPKNFMELLTNQEAQQWVSGWRLNADSVLWGGHKVFMVKPEEPFQPVKEATQL [P96T]
area with substrate ENLYFAS: 0.0663 | area with substrate ENLYFIS: 0.063 | area with substrate ENLYFRS: 0.0583 | area with substrate ENLYFWS: 0.0586 | area with substrate ENLYFYS: 0.0631

MGESLFKGPRDYNPISSSICHLTNESDGHTTSLYGIGFGPFIITNKHLFRRNNGTLVVQSLHGVFKVKDTTTLQQHLVDGRDMIIIRMPKDFPPFCQKLKFREPQREERICLVTTNFQTKSMSSMVSDTSCTFPSGDGIFWKHWIQTKDGQCGSPLVSTRDGFIVGIHSASNFTNTNNYFTSVPKNFMELLTNQEAQQWVSGWRLNADSVLWGGHKVFMVKPEEPFQPVKEATQL [P96C]
area with substrate ENLYFAS: 0.0637 | area with substrate ENLYFCS: 0.0587 | area with substrate ENLYFES: 0.0841 | area with substrate ENLYFHS: 0.0462 | area with substrate ENLYFIS: 0.059 | area with substrate ENLYFLS: 0.0695 | area with substrate ENLYFMS: 0.0669 | area with substrate ENLYFNS: 0.0628 | area with substrate ENLYFPS: 0.0542 | area with substrate ENLYFSS: 0.0545 | area with substrate ENLYFTS: 0.0682 | area with substrate ENLYFWS: 0.059 | area with substrate ENLYFYS: 0.0664

MGESLFKGPRDYNPISSSICHLTNESDGHTTSLYGIGFGPFIITNKHLFRRNNGTLVVQSLHGVFKVKDTTTLQQHLVDGRDMIIIRMPKDFPPFPQKLKFREPQREERICLVTTNFQTKSMSSMVSDTSCTFPSGDGIFWKHWIQTKDGQCGSPLVSTRDGFIVGIHSASNFTNTNNYFTSVPKNFMELLTNQEAQQWVSGWRLNSDSVLWGGHKVFMVKPEEPFQPVKEATQL [A207S]
area with substrate ENLYFAS: 0.0706 | area with substrate ENLYFCS: 0.0544 | area with substrate ENLYFDS: 0.0399 | area with substrate ENLYFES: 0.062 | area with substrate ENLYFFS: 0.0858 | area with substrate ENLYFHS: 0.0703 | area with substrate ENLYFIS: 0.0505 | area with substrate ENLYFKS: 0.0636 | area with substrate ENLYFMS: 0.0692 | area with substrate ENLYFNS: 0.0597 | area with substrate ENLYFPS: 0.0628 | area with substrate ENLYFSS: 0.0539 | area with substrate ENLYFVS: 0.0565 | area with substrate ENLYFWS: 0.0478 | area with substrate ENLYFYS: 0.0585

MGESLFKGPRDYNPISSSICHLTNESDGHTTSLYGIGFGPFIITNKHLFRRNNGTLVVQSLHGVFKVKDTTTLQQHLVDGRDMIIIRMPKDFPPFPQKLKFREPQREERICLVTTNFQTKSMSSMVSDTSCTFPSGDGIFWKHWIQTKDGQCGSPLVSTRDGFIVGIHSASNFTNTNNYFTSVPKNFMELLTNQEAQQWVSGWRLNADSVLWGGHKWFMVKPEEPFQPVKEATQL [V217W]
area with substrate ENLYFAS: 0.0478 | area with substrate ENLYFCS: 0.0668 | area with substrate ENLYFES: 0.0621 | area with substrate ENLYFFS: 0.0645 | area with substrate ENLYFGS: 0.0964 | area with substrate ENLYFHS: 0.0475 | area with substrate ENLYFIS: 0.0474 | area with substrate ENLYFKS: 0.075 | area with substrate ENLYFLS: 0.0633 | area with substrate ENLYFMS: 0.0647 | area with substrate ENLYFNS: 0.0529 | area with substrate ENLYFPS: 0.0343 | area with substrate ENLYFRS: 0.0722 | area with substrate ENLYFSS: 0.072 | area with substrate ENLYFTS: 0.0641 | area with substrate ENLYFVS: 0.0676 | area with substrate ENLYFWS: 0.0426

MGESLFKGPRDYNPISSSICHLTNESDGHTTSLYGIGFGPFIITNKHLFRRNNGTLVVQSLHGVFKVKDTTTLQQHKVDGRDMIIIRMPKDFPPFPQKLKFREPQREERICLVTTNFQTKSMSSMVSDTSCTFPSGDGIFWKHWIQTKDGQCGSPLVSTRDGFIVGIHSASNFTNTNNYFTSVPKNFMELLTNQEAQQWVSGWRLNADSVLWGGHKVFMVKPEEPFQPVKEATQL [L77K]
area with substrate ENLYFAS: 0.0555 | area with substrate ENLYFCS: 0.0462 | area with substrate ENLYFDS: 0.0327 | area with substrate ENLYFHS: 0.0251 | area with substrate ENLYFIS: 0.0546 | area with substrate ENLYFKS: 0.0557 | area with substrate ENLYFMS: 0.051 | area with substrate ENLYFNS: 0.0722 | area with substrate ENLYFSS: 0.0625 | area with substrate ENLYFTS: 0.0656 | area with substrate ENLYFVS: 0.0356 | area with substrate ENLYFWS: 0.0242 | area with substrate ENLYFYS: 0.075

MGESLFKGPRDYNPISSSICHLTNESDGHTTSLYGIGFGPFIITNKHLFRRNNGTLVVQSLHGVFKVKDTTTLQQHLVDGRDMIIIRMPKDFPPFPQKLKFREPQQEERICLVTTNFQTKSMSSMVSDTSCTFPSGDGIFWKHWIQTKDGQCGSPLVSTRDGFIVGIHSASNFTNTNNYFTSVPKNFMELLTNQEAQQWVSGWRLNADSVLWGGHKVFMVKPEEPFQPVKEATQL [R106Q]
area with substrate ENLYFAS: 0.0542 | area with substrate ENLYFCS: 0.0557 | area with substrate ENLYFDS: 0.0476 | area with substrate ENLYFES: 0.0646 | area with substrate ENLYFHS: 0.0442 | area with substrate ENLYFIS: 0.0553 | area with substrate ENLYFKS: 0.0604 | area with substrate ENLYFLS: 0.0669 | area with substrate ENLYFMS: 0.0577 | area with substrate ENLYFNS: 0.0691 | area with substrate ENLYFPS: 0.0615 | area with substrate ENLYFRS: 0.0694 | area with substrate ENLYFSS: 0.0739 | area with substrate ENLYFVS: 0.0397 | area with substrate ENLYFWS: 0.0566 | area with substrate ENLYFYS: 0.0603

Reference: the supplement of paper PMC12217912
